Some of the results follow.
These sequences were tested against T1, MBP-FoxP1dN (Mus musculus, UniProt P58462 326-579) (assay: PD-seq (MBP pull-down with sequencing); 20 mM Tris-HCl pH 7.5, 100 mM NaCl, 1.5 mM MgCl2, 0.4 uM protein, 0.1 uM dsDNA library, 30 min, room temperature, amylose pull-down; high values mean tight binding). Conditions: protein: recombinant; tags: His6-MBP; chain copies: 2; dsDNA, one strand shown.
T1 sequence: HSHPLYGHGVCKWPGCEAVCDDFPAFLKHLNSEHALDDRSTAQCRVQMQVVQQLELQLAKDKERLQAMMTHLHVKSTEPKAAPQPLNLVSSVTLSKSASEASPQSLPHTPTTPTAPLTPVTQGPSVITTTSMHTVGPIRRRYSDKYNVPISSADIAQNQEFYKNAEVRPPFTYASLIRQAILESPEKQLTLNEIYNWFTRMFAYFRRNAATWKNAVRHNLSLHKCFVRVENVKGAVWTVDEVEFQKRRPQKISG
How it was run: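 A degenerate double-stranded DNA library, filled in with Klenow, was added at 0.1 µM to 0.4 µM His6-MBP-tagged mouse FoxP3 or FoxP1 fragment lacking the N-terminus, expressed in E. coli. Incubation lasted 30 min at room temperature in Tris pH 7.5 buffer with NaCl and MgCl2, after which complexes were collected on amylose resin, washed three times, digested with proteinase K to free the DNA, barcoded by PCR and sequenced by Illumina. Binding is the pooled-replicate reads-per-million enrichment of pull-down over input.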
With “GATGATTGTTCTCCCAGCTGATGAATTAGGTTGATCGAGTAAACAAATTTTCCTAATCTTTCTGTTCAAGCGCCATCTAC” the binding signal was 0.965 RPM ratio (pull-down/input). “GATGATTGTTCTCCCAGCTGATGAATTAACGATTTCGAGTAAACAAATTTTCCTAATCTTTCTGTTCAAGCGCCATCTAC” was tested, and the binding signal was 0.95 RPM ratio (pull-down/input). “GATGATTGTTCTCCCAGCTGATGAATTGCTCAGCTCGAGTAAACAAATTTTCCTAATCTTTCTGTTCAAGCGCCATCTAC” was tested, and the binding signal was 0.904 RPM ratio (pull-down/input). For “GATGATTGTTCTCCCAGCTGATGAATTGGGTGAGTCGAGTAAACAAATTTTCCTAATCTTTCTGTTCAAGCGCCATCTAC”, the binding signal was 0.83 RPM ratio (pull-down/input). With “GATGATTGTTCTCCCAGCTGATGAATTCGACAGCTCGAGTAAACAAATTTTCCTAATCTTTCTGTTCAAGCGCCATCTAC” the binding signal was 0.763 RPM ratio (pull-down/input). For “GATGATTGTTCTCCCAGCTGATGAATTTTCTTGTTCGAGTAAACAAATTTTCCTAATCTTTCTGTTCAAGCGCCATCTAC”, the binding signal was 0.994 RPM ratio (pull-down/input). For “GATGATTGTTCTCCCAGCTGATGAATTGTTACATTCGAGTAAACAAATTTTCCTAATCTTTCTGTTCAAGCGCCATCTAC”, the binding signal was 1.49 RPM ratio (pull-down/input). In the case of “GATGATTGTTCTCCCAGCTGATGAATTTCTTTGGTCGAGTAAACAAATTTTCCTAATCTTTCTGTTCAAGCGCCATCTAC”, the binding signal is reported as 0.881 RPM ratio (pull-down/input). For “GATGATTGTTCTCCCAGCTGATGAATTAGTAACGTCGAGTAAACAAATTTTCCTAATCTTTCTGTTCAAGCGCCATCTAC”, the binding signal was 0.99 RPM ratio (pull-down/input). For “GATGATTGTTCTCCCAGCTGATGAATTTTGTGTCTCGAGTAAACAAATTTTCCTAATCTTTCTGTTCAAGCGCCATCTAC”, the binding signal was 1.27 RPM ratio (pull-down/input). With “GATGATTGTTCTCCCAGCTGATGAATTCACAACTTCGAGTAAACAAATTTTCCTAATCTTTCTGTTCAAGCGCCATCTAC” the binding signal was 0.994 RPM ratio (pull-down/input). With “GATGATTGTTCTCCCAGCTGATGAATTATTCCCGTCGAGTAAACAAATTTTCCTAATCTTTCTGTTCAAGCGCCATCTAC” the binding signal was 0.986 RPM ratio (pull-down/input). In the case of “GATGATTGTTCTCCCAGCTGATGAATTCACACGGTCGAGTAAACAAATTTTCCTAATCTTTCTGTTCAAGCGCCATCTAC”, the binding signal is reported as 0.895 RPM ratio (pull-down/input). In the case of “GATGATTGTTCTCCCAGCTGATGAATTCGGCAGATCGAGTAAACAAATTTTCCTAATCTTTCTGTTCAAGCGCCATCTAC”, the binding signal is reported as 0.832 RPM ratio (pull-down/input). For “GATGATTGTTCTCCCAGCTGATGAATTGTTAAGTTCGAGTAAACAAATTTTCCTAATCTTTCTGTTCAAGCGCCATCTAC”, the binding signal was 1.15 RPM ratio (pull-down/input). In the case of “GATGATTGTTCTCCCAGCTGATGAATTGAATACCTCGAGTAAACAAATTTTCCTAATCTTTCTGTTCAAGCGCCATCTAC”, the binding signal is reported as 0.893 RPM ratio (pull-down/input). For “GATGATTGTTCTCCCAGCTGATGAATTGTTAAGGTCGAGTAAACAAATTTTCCTAATCTTTCTGTTCAAGCGCCATCTAC”, the binding signal was 0.982 RPM ratio (pull-down/input). “GATGATTGTTCTCCCAGCTGATGAATTTGCTCCGTCGAGTAAACAAATTTTCCTAATCTTTCTGTTCAAGCGCCATCTAC” was tested, and the binding signal was 0.907 RPM ratio (pull-down/input). With “GATGATTGTTCTCCCAGCTGATGAATTCTGTTGATCGAGTAAACAAATTTTCCTAATCTTTCTGTTCAAGCGCCATCTAC” the binding signal was 2.26 RPM ratio (pull-down/input). “GATGATTGTTCTCCCAGCTGATGAATTGTCGAAGTCGAGTAAACAAATTTTCCTAATCTTTCTGTTCAAGCGCCATCTAC” was tested, and the binding signal was 1.02 RPM ratio (pull-down/input). For “GATGATTGTTCTCCCAGCTGATGAATTGTTATCGTCGAGTAAACAAATTTTCCTAATCTTTCTGTTCAAGCGCCATCTAC”, the binding signal was 1.57 RPM ratio (pull-down/input). With “GATGATTGTTCTCCCAGCTGATGAATTGCCGCCGTCGAGTAAACAAATTTTCCTAATCTTTCTGTTCAAGCGCCATCTAC” the binding signal was 0.862 RPM ratio (pull-down/input). With “GATGATTGTTCTCCCAGCTGATGAATTTCCCCGCTCGAGTAAACAAATTTTCCTAATCTTTCTGTTCAAGCGCCATCTAC” the binding signal was 0.724 RPM ratio (pull-down/input). In the case of “GATGATTGTTCTCCCAGCTGATGAATTGCTACGGTCGAGTAAACAAATTTTCCTAATCTTTCTGTTCAAGCGCCATCTAC”, the binding signal is reported as 0.997 RPM ratio (pull-down/input). For “GATGATTGTTCTCCCAGCTGATGAATTACGCTGATCGAGTAAACAAATTTTCCTAATCTTTCTGTTCAAGCGCCATCTAC”, the binding signal was 0.941 RPM ratio (pull-down/input). In the case of “GATGATTGTTCTCCCAGCTGATGAATTTCGTGTTTCGAGTAAACAAATTTTCCTAATCTTTCTGTTCAAGCGCCATCTAC”, the binding signal is reported as 1.02 RPM ratio (pull-down/input). For “GATGATTGTTCTCCCAGCTGATGAATTCTACCATTCGAGTAAACAAATTTTCCTAATCTTTCTGTTCAAGCGCCATCTAC”, the binding signal was 0.894 RPM ratio (pull-down/input). In the case of “GATGATTGTTCTCCCAGCTGATGAATTAAGTTACTCGAGTAAACAAATTTTCCTAATCTTTCTGTTCAAGCGCCATCTAC”, the binding signal is reported as 1.03 RPM ratio (pull-down/input). With “GATGATTGTTCTCCCAGCTGATGAATTGGGCGCCTCGAGTAAACAAATTTTCCTAATCTTTCTGTTCAAGCGCCATCTAC” the binding signal was 0.918 RPM ratio (pull-down/input). For “GATGATTGTTCTCCCAGCTGATGAATTTCATCCATCGAGTAAACAAATTTTCCTAATCTTTCTGTTCAAGCGCCATCTAC”, the binding signal was 0.911 RPM ratio (pull-down/input). With “GATGATTGTTCTCCCAGCTGATGAATTCTGGATCTCGAGTAAACAAATTTTCCTAATCTTTCTGTTCAAGCGCCATCTAC” the binding signal was 0.751 RPM ratio (pull-down/input). With “GATGATTGTTCTCCCAGCTGATGAATTCAACCTCTCGAGTAAACAAATTTTCCTAATCTTTCTGTTCAAGCGCCATCTAC” the binding signal was 0.787 RPM ratio (pull-down/input).
